# Hit rate of the full screen: of about 310,000 compounds, about 18,000 (5.8%) were called active. Inconclusive means that the source gave no clear call. Such entries were picked first, then a sample of the others. The call rests on the fitted dose curve; in most records, active means well fitted inhibition curve with a large enough effect; inconclusive means small, poorly fitted or top-dose-only effect, or another doubt; inactive means no such curve, though single readings can be large or run the other way. Potencies of inconclusive entries are left out as doubtful fits.
# Experiment: Primary qHTS for delayed death inhibitors of the malarial parasite plastid, 48 hour incubation
# Details: P. falciparum luciferase growth in erythrocytes; series mostly up to 28.7 µM
# Method in brief: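 Luciferase-expressing parasites in RBCs, 2% Hct / 0.1% parasitemia final; RPMI 1640 + 0.5% Albumax; 37 C, 5% CO2, one generation; luminescence read-out, lower signal = inhibition.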
# Potency means the concentration at half of the fitted maximal effect; tags describe the fitted curve by direction and shape.
row,Structure (SMILES),Potency
1,O=C(N/C(=C/c1cccs1)C(=O)N1CCCCCC1)c1ccccc1,"inconclusive [inhibitor, single point]"
2,Cc1occc1C(=O)N(C)CC1CCCN(CCc2ccccc2F)C1 (stereo not given),"inconclusive [inhibitor, single point]"
3,CCCCCSc1cc(OC)c(CCN)cc1OC,"inconclusive [inhibitor, partial curve, poor fit]"
4,CCOc1cc2[nH]c(=S)n(Cc3ccc(C)o3)c(=O)c2cc1OCC,"inconclusive [inhibitor, partial curve]"
5,COc1cc2c(=O)c(-c3ccc(O)cc3)coc2cc1OC1OC(CO)C(O)C(O)C1O (stereo not given),inactive
6,CCN(CC)S(=O)(=O)c1cc(C(=O)OC(C)C(=O)NCc2ccco2)ccc1C (stereo not given),"inconclusive [inhibitor, single point]"
7,Cc1ccc(S(=O)(=O)N2CCCCC2)cc1C(=O)Nc1ccc2cn[nH]c2c1,"inconclusive [inhibitor, single point]"
8,CCOc1ccc([N+](=O)[O-])c(N)c1,inactive
9,c1ccc(CCN(Cc2ccccc2)C2CCN(C3CCCC3)CC2)cc1,"inconclusive [inhibitor, single point]"
10,O=C(CSc1nc2ccccc2c(=O)n1CCCN1CCOCC1)NC12CC3CC(CC(C3)C1)C2,active: 10.4 µM
11,Cc1ccc(C)c(Cn2c3ccccc3c3cnn(CC(=O)NCCN4CCOCC4)c(=O)c32)c1,"inconclusive [inhibitor, single point]"
12,C/C(N)=C(/C#N)C(=O)CSc1nc2ccc(C)cc2[nH]1,inactive
13,OC1CCN(Cc2ccc(OCc3ccccc3)cc2)CC1,inactive
14,O=C(Nc1ccccc1)N1CCN(Cc2ccc(Cl)cc2)CC1,"inconclusive [inhibitor, partial curve, poor fit]"
15,CCC(C)Nc1nc(-c2ccc3c(c2)NC(=O)CO3)cs1 (stereo not given),inactive
16,Clc1ccc(Cl)c(OCCCCN2CCNCC2)c1,"inconclusive [inhibitor, single point]"
17,COc1ccc(CN2C3CCCC2CC(NC(=O)Nc2ccccc2)C3)cc1 (stereo not given),active: 10.4 µM
18,Cc1c(C)n2c(SCC(=O)N3CCN(c4ccccc4)CC3)nnc2[nH]c1=O,active: 3.29 µM
19,CCc1nn(CCCC(=O)N2CCN(c3ccc(OC)cc3)CC2)c(=O)c2cc3occc3n12,"inconclusive [inhibitor, partial curve, poor fit]"
20,O=C(CSc1ncccc1C(=O)O)c1ccc2ccccc2c1,inactive
21,CCCCCCn1cnc2c(c1=O)c1nc3ccccc3nc1n2/N=C/c1ccco1,"inconclusive [inhibitor, partial curve, poor fit]"
22,O=C(COC(=O)c1ccccc1C(=O)c1ccc(Cl)cc1)NCC1CCCO1 (stereo not given),inactive
23,Cc1ccccc1CN1C[C@@H]2C[C@@H](c3cnc(N4CCOCC4)s3)N3CCC[C@@]23C1=O,"inconclusive [inhibitor, single point]"
24,O=C(c1cc2ccccc2o1)c1cccs1,inactive
25,CC(C)C(=O)Nc1ccc2c(c1)nc(CCN1CCN(c3ccccn3)CC1)n2C,inactive

row,Structure (SMILES),Potency
1,CN1C(=O)NC(=O)/C(=C\c2ccc([N+](=O)[O-])o2)C1=O,inactive
2,N#Cc1cc(-c2ccc(Cl)cc2)cn(Cc2c(Cl)cccc2Cl)c1=O,inactive
3,CC(Nc1nc(Nc2ccc(F)cc2)nc(SCC(N)=O)n1)c1ccccc1 (stereo not given),"inconclusive [inhibitor, full curve, poor fit]"
4,Cc1ccc(S(=O)(=O)Nc2cccc(-n3cnnn3)c2)cc1,inactive
5,CCOC(=O)N1CCN(C(=O)c2ccc3c(=O)n(CCc4ccc(OC)c(OC)c4)c(=O)[nH]c3c2)CC1,"inconclusive [inhibitor, partial curve]"
6,CCOc1ccc(-c2csc3ncn(-c4ccc(OC)cc4)c(=O)c23)cc1,"inconclusive [inhibitor, full curve]"
7,CCCCNc1c(-c2ccc(-c3ccc(C(C)=O)cc3)c(OC)c2)nc2cnccn12,active: 9.28 µM
8,Cc1ccc2ncccc2c1NS(=O)(=O)c1ccccc1,inactive
9,COCCN=C1NN=C(c2ccc(NC(C)=O)cc2)CS1,"inconclusive [inhibitor, single point]"
10,Nc1ncnc(N2CCc3ccccc32)c1[N+](=O)[O-],"inconclusive [inhibitor, single point]"
11,COc1ccc(C(c2sc3nc(C)nn3c2O)N2CCc3ccccc3C2)cc1 (stereo not given),"inconclusive [inhibitor, single point]"
12,COc1cccc(OC)c1C(=O)Nc1ccccc1C(=O)N1CCCCCC1,inactive
13,COc1ccc(-c2nonc2NC(=O)c2ccco2)cc1OC,"inconclusive [inhibitor, single point]"
14,COc1ccc(CCNC(=O)/C=C\c2ccccc2)cc1OC,"inconclusive [inhibitor, partial curve, poor fit]"
15,Cc1ccc(-c2csc(N3CCN(c4ccc5nc(-c6ccncc6)n(CCN6CCCCC6)c5c4)CC3)n2)cc1,active: 1.47 µM
16,COC(=O)c1cc(S(=O)(=O)N2CCOCC2)c(Cl)cc1N1CCOCC1,inactive
17,N/C(=N\OC(=O)CCc1ccccc1)c1ccc(Br)cc1,inactive
18,COc1cc(/C=C2\CCOC2=O)cc(OC)c1OC,inactive
19,CCc1ccc2c(c1)cc(CN(C(=S)Nc1ccccc1)C1CC1)c1nnnn12,"inconclusive [inhibitor, partial curve, poor fit]"
20,CSCCC(NC(=O)c1cccc(C)c1)C(=O)Nc1sccc1C(N)=O (stereo not given),inactive
21,COc1ccc2nc(SCC(=O)Nc3ccc4[nH]c(=O)[nH]c4c3)[nH]c2c1,inactive
22,O=C1CCCC(O)=C1C=Nc1ccc(O)cc1,inactive
23,COc1ccc2sc(N(CCCN(C)C)C(=O)c3ccc(S(=O)(=O)N4CCc5ccccc5C4)cc3)nc2c1,"inconclusive [inhibitor, single point]"
24,CCCCCN(C(=O)COC(=O)Cc1c(C)nc2ccccc2c1C)c1c(N)n(CCCC)c(=O)[nH]c1=O,"inconclusive [inhibitor, single point]"
25,COc1ccc(-c2nc(CS(=O)CC(=O)N3CCCC3)c(C)o2)cc1 (stereo not given),inactive

row,Structure (SMILES),Potency
1,O=C(NCC(c1cccnc1)N1CCN(c2ccccc2)CC1)Oc1ccccc1 (stereo not given),active: 13.1 µM
2,COc1cccc(NC2=C(NCCO)C(=O)c3ccccc3C2=O)c1,inactive
3,CCN(CC)CCN(C(=O)C1=COCCO1)c1nc2c(OC)ccc(OC)c2s1,"inconclusive [inhibitor, single point]"
4,Fc1ccc(CSc2ccc3nnc(-c4ccccn4)n3n2)cc1,active: 3.7 µM
5,CNS(=O)(=O)c1ccc(Cl)nc1,inactive
6,O=C(NCCc1nnc2ccc(SCC(=O)N3CCCC3)nn12)c1ccccc1,inactive
7,Cc1ccc(OCCOCCN2CCCCC2)c([N+](=O)[O-])c1,"inconclusive [inhibitor, single point]"
8,CC(CCN1CCN(CCO)CC1)c1ccccc1 (stereo not given),"inconclusive [inhibitor, single point]"
9,CCCCN(C)Cc1c(O)ccc2c(-c3ccccc3)cc(=O)oc12,"inconclusive [inhibitor, full curve]"
10,CCC(=O)Nc1cccc(C2=NOC3(C2)C[C@@H](C(N)=O)N(C(=O)c2cc([N+](=O)[O-])cc([N+](=O)[O-])c2)C3)c1 (stereo not given in full),"inconclusive [inhibitor, partial curve, poor fit]"
11,CCC(C(=O)NC1CCCCC1)n1c(SCc2ccc(F)cc2)nc2ccncc21 (stereo not given),"inconclusive [inhibitor, partial curve]"
12,COc1ccccc1CN(C(=O)c1ccco1)C(C(=O)NC1CCCC1)c1ccncc1 (stereo not given),"inconclusive [inhibitor, partial curve, poor fit]"
13,CCOC(=O)C1CCN(C(=O)CCC(=O)NNc2nc3ccccc3c3nc(C)nn23)CC1,"inconclusive [inhibitor, single point]"
14,CN(CCOc1ccccc1)C(=O)CNC(=O)c1ccc(C(C)(C)C)cc1,"inconclusive [inhibitor, single point]"
15,CC(C)COc1cccc(C(=O)NNC(=O)C2COc3ccccc3O2)c1 (stereo not given),"inconclusive [inhibitor, partial curve, poor fit]"
16,CCN(CC)c1ccc(NC(=O)c2ccc3c(c2)OCO3)cc1,inactive
17,CCCCCCn1c(N2CCN(c3ccccc3)CC2)nc2c1c(=O)[nH]c(=O)n2C,active: 8.28 µM
18,CSc1nc(-c2ccc(F)cc2)cc(=O)[nH]1,inactive
19,COc1ccc(N=NC2=C(O)CC(C)(C)CC2=O)cc1,inactive
20,CC1(C)Cc2c(C#N)c(SCC(=O)c3ccccc3)nc(N3CCOCC3)c2CO1,"inconclusive [inhibitor, partial curve]"
21,Cc1c(C)n2c(SCC(=O)N3CCCC3)nnc2[nH]c1=O,inactive
22,FC(F)C(F)(F)c1cc(-c2ccccc2)n[nH]1,inactive
23,CC(C)OC(=O)CSc1nc(Cc2cccs2)nc2ccccc12,"inconclusive [inhibitor, single point]"
24,CCC1c2ccc(C)n2CCN1C(=O)Nc1ccccc1OC (stereo not given),"inconclusive [inhibitor, single point]"
25,Fc1cccc(/C=N/Nc2cc(N3CCOCC3)ncn2)c1,inactive

# From PubChem BioAssay AID504832 (National Center for Advancing Translational Sciences (NCATS), 2011)
